Measurements from the supplement of paper PMC8728848.
Some of the results follow.

How the values were obtained:
Experiment in all cases: glycan array binding signal (z-score within array); higher = stronger binding
Conditions in all cases: glycan notation: IUPAC condensed, linker removed
Neu5Ac(a2-3)Gal(b1-4)Glc = target: Neu5Ac(a2-3)Gal(b1-4)Glc
Procedure, shortened: (§1)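 Glycan array data were curated from 3228 arrays in the Consortium for Functional Glycomics database and kept only where the protein sequence was available. Glycan names were converted to IUPAC-condensed notation, and columns mapping to the same glycan were averaged. The binding signal is a within-array Z-score, averaged across arrays of the same protein sequence at different concentrations or buffers and across linkers. Negative Z-scores can be read as non-binding.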

[1] = target: Neu5Ac(a2-3)Gal(b1-4)GlcNAc
Procedure, shortened: as §1

[2] = target: Neu5Ac(a2-3)Gal(b1-4)GlcNAc(b1-2)Man
Procedure, shortened: as §1

[3] = target: Neu5Ac(a2-3)Gal(b1-4)GlcNAc(b1-2)Man(a1-3)[GlcNAc(b1-4)][Neu5Ac(a2-3)Gal(b1-4)GlcNAc(b1-2)Man(a1-6)]Man(b1-4)GlcNAc(b1-4)GlcNAc
Procedure, shortened: as §1

[4] = target: Neu5Ac(a2-3)Gal(b1-4)GlcNAc(b1-2)Man(a1-3)[Neu5Ac(a2-3)Gal(b1-4)GlcNAc(b1-2)Man(a1-6)]Man(b1-4)GlcNAc(b1-4)GlcNAc
Procedure, shortened: as §1

[5] = target: Neu5Ac(a2-3)Gal(b1-4)GlcNAc(b1-2)Man(a1-3)[Neu5Ac(a2-3)Gal(b1-4)GlcNAc(b1-2)Man(a1-6)]Man(b1-4)GlcNAc(b1-4)[Fuc(a1-6)]GlcNAc
Procedure, shortened: as §1

[6] = target: Neu5Ac(a2-3)Gal(b1-4)GlcNAc(b1-2)Man(a1-3)[Neu5Ac(a2-6)Gal(b1-4)GlcNAc(b1-2)Man(a1-6)]Man(b1-4)GlcNAc(b1-4)GlcNAc
Procedure, shortened: as §1

[7] = target: Neu5Ac(a2-3)Gal(b1-4)GlcNAc(b1-2)[Neu5Ac(a2-3)Gal(b1-4)GlcNAc(b1-4)]Man(a1-3)[GlcNAc(b1-4)][Neu5Ac(a2-3)Gal(b1-4)GlcNAc(b1-2)[Neu5Ac(a2-3)Gal(b1-4)GlcNAc(b1-6)]Man(a1-6)]Man(b1-4)GlcNAc(b1-4)GlcNAc
Procedure, shortened: as §1

[8] = target: Neu5Ac(a2-3)Gal(b1-4)GlcNAc(b1-2)[Neu5Ac(a2-3)Gal(b1-4)GlcNAc(b1-4)]Man(a1-3)[GlcNAc(b1-4)][Neu5Ac(a2-3)Gal(b1-4)GlcNAc(b1-4)Man(a1-6)]Man(b1-4)GlcNAc(b1-4)GlcNAc
Procedure, shortened: as §1

[9] = target: Neu5Ac(a2-3)Gal(b1-4)GlcNAc(b1-2)[Neu5Ac(a2-3)Gal(b1-4)GlcNAc(b1-6)]Man(a1-6)[Neu5Ac(a2-3)Gal(b1-4)GlcNAc(b1-2)Man(a1-3)][GlcNAc(b1-4)]Man(b1-4)GlcNAc(b1-4)GlcNAc
Procedure, shortened: as §1

[10] = target: Neu5Ac(a2-3)Gal(b1-4)GlcNAc(b1-3)Gal
Procedure, shortened: as §1

[11] = target: Neu5Ac(a2-3)Gal(b1-4)GlcNAc(b1-3)Gal(b1-3)GlcNAc
Procedure, shortened: as §1

[12] = target: Neu5Ac(a2-3)Gal(b1-4)GlcNAc(b1-3)Gal(b1-4)GlcNAc
Procedure, shortened: as §1

[13] = target: Neu5Ac(a2-3)Gal(b1-4)GlcNAc(b1-3)Gal(b1-4)GlcNAc(b1-2)Man(a1-3)[Neu5Ac(a2-3)Gal(b1-4)GlcNAc(b1-3)Gal(b1-4)GlcNAc(b1-2)Man(a1-6)]Man(b1-4)GlcNAc(b1-4)GlcNAc
Procedure, shortened: as §1

[14] = target: Neu5Ac(a2-3)Gal(b1-4)GlcNAc(b1-3)Gal(b1-4)GlcNAc(b1-3)Gal(b1-4)GlcNAc
Procedure, shortened: as §1

[15] = target: Neu5Ac(a2-3)Gal(b1-4)GlcNAc(b1-3)Gal(b1-4)GlcNAc(b1-3)Gal(b1-4)GlcNAc(b1-2)Man(a1-3)[Neu5Ac(a2-3)Gal(b1-4)GlcNAc(b1-3)Gal(b1-4)GlcNAc(b1-3)Gal(b1-4)GlcNAc(b1-2)Man(a1-6)]GalNAc
Procedure, shortened: as §1

[16] = target: Neu5Ac(a2-3)Gal(b1-4)GlcNAc(b1-3)Gal(b1-4)GlcNAc(b1-3)GalNAc
Procedure, shortened: as §1

[17] = target: Neu5Ac(a2-3)Gal(b1-4)GlcNAc(b1-3)Gal(b1-4)GlcNAc(b1-3)[Neu5Ac(a2-3)Gal(b1-4)GlcNAc(b1-3)Gal(b1-4)GlcNAc(b1-6)]GalNAc
Procedure, shortened: as §1

[18] = target: Neu5Ac(a2-3)Gal(b1-4)GlcNAc(b1-3)Gal(b1-4)GlcNAc(b1-6)[Gal(b1-3)]GalNAc
Procedure, shortened: as §1

[19] = target: Neu5Ac(a2-3)Gal(b1-4)GlcNAc(b1-3)Gal(b1-4)[Fuc(a1-3)]GlcNAc
Procedure, shortened: as §1

[20] = target: Neu5Ac(a2-3)Gal(b1-4)GlcNAc(b1-3)GalNAc
Procedure, shortened: as §1

[21] = target: Neu5Ac(a2-3)Gal(b1-4)GlcNAc(b1-3)[Neu5Ac(a2-3)Gal(b1-4)GlcNAc(b1-6)]GalNAc
Procedure, shortened: as §1

[22] = target: Neu5Ac(a2-3)Gal(b1-4)GlcNAc(b1-6)GalNAc
Procedure, shortened: as §1

[23] = target: Neu5Ac(a2-3)Gal(b1-4)GlcNAc(b1-6)[Gal(b1-3)]GalNAc
Procedure, shortened: as §1

[24] = target: Neu5Ac(a2-3)Gal(b1-4)GlcNAc(b1-6)[Neu5Ac(a2-3)Gal(b1-3)]GalNAc
Procedure, shortened: as §1

[25] = target: Neu5Ac(a2-3)Gal(b1-4)GlcNAc6S
Procedure, shortened: as §1

[26] = target: Neu5Ac(a2-3)Gal(b1-4)[Fuc(a1-3)]GlcNAc
Procedure, shortened: as §1

[27] = target: Neu5Ac(a2-3)Gal(b1-4)[Fuc(a1-3)]GlcNAc(b1-2)Man
Procedure, shortened: as §1

[28] = target: Neu5Ac(a2-3)Gal(b1-4)[Fuc(a1-3)]GlcNAc(b1-3)Gal
Procedure, shortened: as §1

[29] = target: Neu5Ac(a2-3)Gal(b1-4)[Fuc(a1-3)]GlcNAc(b1-3)Gal(b1-4)GlcNAc
Procedure, shortened: as §1

[30] = target: Neu5Ac(a2-3)Gal(b1-4)[Fuc(a1-3)]GlcNAc(b1-3)Gal(b1-4)[Fuc(a1-3)]GlcNAc(b1-3)Gal(b1-4)[Fuc(a1-3)]GlcNAc
Procedure, shortened: as §1

[31] = target: Neu5Ac(a2-3)Gal(b1-4)[Fuc(a1-3)]GlcNAc(b1-3)GalNAc
Procedure, shortened: as §1

[32] = target: Neu5Ac(a2-3)Gal(b1-4)[Fuc(a1-3)]GlcNAc(b1-6)[Gal(b1-3)]GalNAc
Procedure, shortened: as §1

[33] = target: Neu5Ac(a2-3)Gal(b1-4)[Fuc(a1-3)]GlcNAc(b1-6)[Neu5Ac(a2-3)Gal(b1-3)]GalNAc
Procedure, shortened: as §1

[34] = target: Neu5Ac(a2-3)Gal(b1-4)[Fuc(a1-3)]GlcNAc6S
Procedure, shortened: as §1

[35] = target: Neu5Ac(a2-3)Gal6S(b1-4)GlcNAc
Procedure, shortened: as §1

[36] = target: Neu5Ac(a2-3)Gal6S(b1-4)[Fuc(a1-3)]GlcNAc
Procedure, shortened: as §1

Neu5Ac(a2-3)GalNAc = target: Neu5Ac(a2-3)GalNAc
Procedure, shortened: as §1

B1: rCnSL-proA (Clitocybe nebularis) (protein)
chain: AAFFSLVVLLALLPFGIHASALPSTELTPRVNPNLPGPNDVFVGFRGTNNIVGAIYEKDGIKDTPLNNGADAEMGPGSYITDGLFTARIFASGSAGNNPGTTATVCKIYASGVQWRGAPKGYIPVAYFGNGPTAEQRRQTYLRTLGLPGTAIRFGNLNTNPGQGPTAPRQMVVPPGPLRSLLKASCFPAADTRLPQTLHYFEKRVDWNIITAADSQTWGH
glycan array binding signal (z-score) (Neu5Ac(a2-3)Gal(b1-4)Glc): 0.341 | glycan array binding signal (z-score) [1]: -0.729 | glycan array binding signal (z-score) [2]: 0.283 | glycan array binding signal (z-score) [3]: -0.431 | glycan array binding signal (z-score) [4]: -0.33 | glycan array binding signal (z-score) [5]: 0.096 | glycan array binding signal (z-score) [6]: -0.713 | glycan array binding signal (z-score) [7]: 0.042 | glycan array binding signal (z-score) [8]: -0.116 | glycan array binding signal (z-score) [9]: -0.418 | glycan array binding signal (z-score) [10]: -0.931 | glycan array binding signal (z-score) [11]: -0.432 | glycan array binding signal (z-score) [12]: -0.022 | glycan array binding signal (z-score) [13]: 1.62 | glycan array binding signal (z-score) [14]: -0.54 | glycan array binding signal (z-score) [15]: 4.1 | glycan array binding signal (z-score) [16]: -0.397 | glycan array binding signal (z-score) [17]: 0.489 | glycan array binding signal (z-score) [18]: -0.373 | glycan array binding signal (z-score) [19]: -0.136 | glycan array binding signal (z-score) [20]: -0.264 | glycan array binding signal (z-score) [21]: -0.192 | glycan array binding signal (z-score) [22]: -0.108 | glycan array binding signal (z-score) [23]: 0.09 | glycan array binding signal (z-score) [24]: -0.211 | glycan array binding signal (z-score) [25]: -0.489 | glycan array binding signal (z-score) [26]: -0.536 | glycan array binding signal (z-score) [27]: -1.35 | glycan array binding signal (z-score) [28]: -0.442 | glycan array binding signal (z-score) [29]: 0.272 | glycan array binding signal (z-score) [30]: 0.144 | glycan array binding signal (z-score) [31]: 0.502 | glycan array binding signal (z-score) [32]: -0.39 | glycan array binding signal (z-score) [33]: 0.161 | glycan array binding signal (z-score) [34]: -0.444 | glycan array binding signal (z-score) [35]: -0.759 | glycan array binding signal (z-score) [36]: -0.672 | glycan array binding signal (z-score) (Neu5Ac(a2-3)GalNAc): -0.764
